In the supplement of paper PMC9446081 one finds relative growth data, which are given here for 59 compounds.

Molecules are shown by their SMILES. Hit rate of the full screen: of about 39,000 compounds, about 220 (0.56%) showed activity. The list shows a part of the results.
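Further: static incubation at 37 °C against the wild-type strain, values averaged over two biological replicates.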

The assay relates to Escherichia coli K-12 BW25113. The assay can be described thus: relative growth (OD600 normalised to plate interquartile mean) (fraction); higher = less growth inhibition, active = 0.2 or less. The conditions noted are these: 50 µM; LB; incubation time: overnight (16-24 h).
In the case of `CO/N=[N+](\[O-])N1CCCC1`, the relative growth was inactive: 0.956.

Turning to `C[C@H]1CN([C@@H](C)CO)C(=O)c2cccc(NC(=O)C3CCOCC3)c2O[C@H]1CN(C)S(=O)(=O)c1ccc(Cl)cc1`, the relative growth was inactive: 1.01.

Take `CC1=NCCN1C(=O)[C@@H](N)CC(C)C`: the relative growth was inactive: 1.

As for `Cc1cc(Cl)ccc1OCCN1CCN(C(=O)[C@H]2CC[C@@H](N)C2)CC1`, the relative growth is inactive: 0.931.

Consider `C[C@H]1CN([C@@H](C)CO)C(=O)c2cc(NC(=O)CCC(F)(F)F)ccc2O[C@H]1CN(C)Cc1ccc(C(F)(F)F)cc1`, for which the relative growth is inactive: 1.02.

For `COc1ccc(S(=O)(=O)N2C[C@@H](O)COC[C@@H]3O[C@H](CC(=O)NCc4ccc(Cl)c(Cl)c4)CC[C@H]32)cc1`, the relative growth was inactive: 1.01.

Take `COCc1cn([C@H]2C[C@H](O)[C@@H](CO)O2)c(=O)[nH]c1=O`: the relative growth is inactive: 0.986.

For the compound `O=C1CN(S(=O)(=O)Cc2ccccc2)C[C@@H]2[C@H](c3ccc(C#Cc4cccc(F)c4)cc3)[C@H](CO)N12`, the relative growth is inactive: 1.03.

Take `O=C(C[C@H]1C[C@@H]2c3cc(NC(=O)Nc4ccccc4F)ccc3O[C@@H]2[C@H](CO)O1)NCc1ccc(Oc2ccccc2)cc1`: the relative growth was inactive: 0.951.

Regarding `C[C@@H]1CN([C@@H](C)CO)C(=O)Cc2cc(NC(=O)Cn3cnnn3)ccc2O[C@@H]1CN(C)S(=O)(=O)c1cn(C)cn1`, the relative growth was inactive: 1.

On to `Cc1noc(C)c1S(=O)(=O)Nc1ccc2c(c1)C(=O)N([C@H](C)CO)C[C@H](C)[C@H](CN(C)C(=O)NC(C)C)O2`, for which the relative growth was inactive: 0.986.

Take `C[C@H](CO)N1C[C@H](C)[C@H](CN(C)C(=O)Nc2ccc(F)cc2)OCCCC[C@H](C)Oc2ccc(NS(=O)(=O)c3ccccc3)cc2C1=O`: the relative growth is inactive: 1.05.

Turning to `C[C@H]1CN([C@@H](C)CO)C(=O)c2cc(NS(=O)(=O)c3ccc(Cl)cc3)ccc2O[C@H]1CN(C)Cc1ccc(Oc2ccccc2)cc1`, the relative growth is inactive: 1.01.

With `Cc1c2oc3c(C)ccc(C(=O)OC(C)C4NC(=O)C(C(C)C)N(C)C(=O)CN(C)C(=O)C5CCCN5C(=O)C(C(C)C)NC4=O)c3nc-2c(C(=O)OC(C)C2NC(=O)C(C(C)C)N(C)C(=O)CN(C)C(=O)C3CCCN3C(=O)C(C(C)C)NC2=O)c(N)c1=O` (centres undefined), the relative growth was inactive: 0.758.

In the case of `C[C@H](CO)N1C[C@H](C)[C@@H](CN(C)Cc2ccc(-c3ccccc3)cc2)Oc2ccc(NC(=O)CCCCCC(=O)Nc3ccccc3N)cc2CC1=O`, the relative growth was inactive: 0.96.

Consider `C[C@@H]1CN([C@H](C)CO)C(=O)c2cc(NC(=O)C3CCCCC3)ccc2O[C@@H](C)CCCCO[C@H]1CN(C)C(=O)Nc1ccc(F)cc1`, for which the relative growth was inactive: 0.992.

Take `O=C(C[C@H]1CC[C@H]2[C@@H](COC[C@H](O)CN2Cc2ccccc2F)O1)N[C@@H]1CCN(Cc2ccccc2)C1`: the relative growth is inactive: 0.961.

As for `CC(C)NC(=O)Nc1ccc2c(c1)C(=O)N([C@H](C)CO)C[C@H](C)[C@@H](CN(C)C(=O)Nc1ccc(C(F)(F)F)cc1)OCCCC[C@H](C)O2`, the relative growth was inactive: 1.04.

Regarding `Cc1ccc2c(N)[nH]nc2n1`, the relative growth is inactive: 0.97.

Consider `COc1ccccc1S(=O)(=O)N[C@@H]1C=C[C@@H](CC(=O)N2CCN(C)CC2)O[C@H]1CO`, for which the relative growth was inactive: 0.994.

Turning to `C[C@@H]1CCCCO[C@@H](CN(C)S(=O)(=O)c2cn(C)cn2)[C@@H](C)CN([C@@H](C)CO)C(=O)c2cc(NS(=O)(=O)c3cccs3)ccc2O1`, the relative growth was inactive: 0.973.

Turning to `CCCCC/C=C\C/C=C\CCCCCCCC(N)=O`, the relative growth is inactive: 0.89.

For `COC(=O)c1c(CC[C@@H](CO)NC(=O)N2CCC[C@H]2Cn2cc(Cc3ccccc3)nn2)oc(C(C)=O)c1C(=O)OC`, the relative growth is inactive: 1.01.

On to `C[C@@H]1CN([C@@H](C)CO)C(=O)Cc2cc(NC(=O)Nc3ccc(F)cc3)ccc2O[C@@H]1CN(C)C(=O)Nc1ccc(C(F)(F)F)cc1`, for which the relative growth is inactive: 1.01.

On to `O=C(CCCN1CC=C(n2c(=O)[nH]c3ccccc32)CC1)c1ccc(F)cc1`, for which the relative growth is inactive: 1.08.

In the case of `CCS(=O)(=O)N1C[C@]2(CN(C2)C(=O)Nc2c(noc2C)C)c2c([nH]c3cc(ccc23)OC)[C@H]1CO`, the relative growth was inactive: 1.02.

In the case of `CN(C)CCCCNC(=O)[C@H]1C[C@H]2C(=O)N[C@@H](CCCC[N+](C)(C)C)C(=O)N2[C@H]1c1ccc(O)cc1`, the relative growth is inactive: 0.984.

Regarding `CO[C@@H]1CN(C)C(=O)c2ccc(NS(=O)(=O)CC(F)(F)F)cc2OC[C@H](C)N(Cc2nccs2)C[C@H]1C`, the relative growth is inactive: 0.987.

For the compound `C[C@H]1CN([C@@H](C)CO)C(=O)c2cc(NS(=O)(=O)c3ccc(F)cc3)ccc2O[C@@H]1CN(C)S(=O)(=O)c1cccs1`, the relative growth was inactive: 0.983.

As to `COC1C(=O)C2(C)C(OC)CC3OCC3(OC(C)=O)C2C(OC(=O)c2ccccc2)C2(O)CC(OC(=O)C(O)C(NC(=O)OC(C)(C)C)c3ccccc3)C(C)=C1C2(C)C` (centres undefined), the relative growth is inactive: 0.892.

With `CCCCCCCCCC(=O)N[C@H]1[C@H](Oc2c3cc4cc2Oc2ccc(cc2Cl)[C@@H](O[C@@H]2O[C@H](CO)[C@@H](O)[C@H](O)[C@H]2NC(C)=O)[C@@H]2NC(=O)[C@H](NC(=O)[C@@H]4NC(=O)[C@H]4NC(=O)[C@@H](Cc5ccc(c(Cl)c5)O3)NC(=O)[C@@H](N)c3ccc(O)c(c3)Oc3cc(O)cc4c3)c3ccc(O)c(c3)-c3c(O[C@H]4O[C@H](CO)[C@@H](O)[C@H](O)[C@@H]4O)cc(O)cc3[C@H](C(=O)O)NC2=O)O[C@H](CO)[C@@H](O)[C@@H]1O`, the relative growth is inactive: 1.04.

For the compound `Cc1noc(C)c1S(=O)(=O)Nc1ccc2c(c1)C(=O)N([C@@H](C)CO)C[C@@H](C)[C@H](CN(C)Cc1ccc(C(F)(F)F)cc1)OCCCC[C@H](C)O2`, the relative growth is inactive: 0.997.

As for `Cc1ccccc1S(=O)(=O)N1C[C@H](O)COC[C@@H]2O[C@@H](CC(=O)NCc3ccccc3Cl)CC[C@H]21`, the relative growth is inactive: 0.97.

As for `COCCOC(=O)N1C(=O)[C@@]2(c3cc(C#CC4(O)CCCCCC4)ccc31)[C@H](c1ccc(OCCO)cc1)N1[C@H](c3ccccc3)[C@H](c3ccccc3)OC(=O)[C@H]1[C@@H]2C(N)=O`, the relative growth was inactive: 1.02.

With `COc1ccc(NC(=O)Nc2cccc3c2O[C@@H](CN(C)Cc2ccc(-c4ccccc4)cc2)[C@H](C)CN([C@@H](C)CO)C3=O)cc1`, the relative growth was inactive: 1.

Consider `C[C@H]1CN([C@@H](C)CO)C(=O)c2cc(NC(=O)Nc3ccc(F)cc3)ccc2O[C@@H]1CN(C)Cc1ccc(Oc2ccccc2)cc1`, for which the relative growth was inactive: 1.03.

As for `COc1cccc(NC(=O)N(C)C[C@@H]2Oc3cc(C#CC4(O)CCCC4)ccc3S(=O)(=O)N([C@@H](C)CO)C[C@@H]2C)c1`, the relative growth is inactive: 0.986.

In the case of `C[C@H]1CN([C@@H](C)CO)C(=O)Cc2cc(NC(=O)c3ccncc3)ccc2O[C@@H]1CN(C)S(=O)(=O)c1ccccc1`, the relative growth is inactive: 0.991.

Consider `CC(C)NC(=O)N(C)C[C@@H]1Oc2ccc(NS(=O)(=O)c3ccccc3)cc2C(=O)N([C@@H](C)CO)C[C@@H]1C`, for which the relative growth was inactive: 0.995.

Consider `O=C(C1=C[C@@H](c2ccc(C(F)(F)F)cc2)C[C@@H](OCc2ccc(CO)cc2)O1)N1CCCCCCC1`, for which the relative growth was inactive: 1.06.

On to `CC(C)NC(=O)Nc1ccc2c(c1)CC(=O)N([C@H](C)CO)C[C@H](C)[C@H](CN(C)C(=O)Nc1ccc3c(c1)OCO3)O2`, for which the relative growth is inactive: 1.

Turning to `O=C(O)/C=C/C(=O)N1CCN(C(=O)/C=C/C(=O)O)CC1`, the relative growth was inactive: 0.977.

Consider `C[C@@H]1CN([C@@H](C)CO)C(=O)c2cc(NC(=O)Nc3cccc4ccccc34)ccc2O[C@@H](C)CCCCO[C@H]1CN(C)Cc1ccc(C(=O)O)cc1`, for which the relative growth was inactive: 1.03.

For the compound `OCc1ncc[nH]1`, the relative growth is inactive: 0.971.

In the case of `C[C@@H]1CCCCO[C@H](CN(C)S(C)(=O)=O)[C@H](C)CN([C@@H](C)CO)C(=O)c2cc(N(C)C)ccc2O1`, the relative growth was inactive: 1.04.

In the case of `CCC(=O)O`, the relative growth is inactive: 1.01.

For `COc1ccc2c3c(n(c2c1)C)[C@H](CO)N(C[C@]13CN(C1)S(=O)(=O)c1ccc(cc1)C)S(=O)(=O)c1ccc(cc1)C`, the relative growth was inactive: 1.05.

For the compound `CS(=O)(=O)NCc1ccsc1`, the relative growth is inactive: 1.04.

Consider `COc1cccc(S(=O)(=O)N(C)C[C@@H]2Oc3ncc(C#CCN(C)C)cc3C(=O)N([C@@H](C)CO)C[C@H]2C)c1`, for which the relative growth was inactive: 0.988.

Turning to `Cc1n[nH]c(SCC(=O)O)nc1=O`, the relative growth is inactive: 0.988.

Take `CCCNc1nc(Nc2ccc(C#N)cc2)ncc1C#CCCCNC(=O)[C@H](C)N(C)C(=O)/C=C/CN(C)C`: the relative growth was inactive: 0.993.

With `Cc1noc(C)c1NC(=O)Nc1cccc2c1O[C@H](CN(C)Cc1ccc(C(=O)Nc3ccccc3N)cc1)[C@H](C)CN([C@@H](C)CO)C2=O`, the relative growth was inactive: 1.04.

For `C[C@@H]1CN([C@@H](C)CO)C(=O)Cc2cc(NS(=O)(=O)c3cn(C)cn3)ccc2O[C@@H]1CN(C)Cc1ccccc1`, the relative growth is inactive: 0.996.

For `CN1CCN(C(=O)C[C@H]2CC[C@H]3[C@@H](COC[C@H](O)CN3CC3CCCC3)O2)CC1`, the relative growth was inactive: 0.989.

As for `Cc1cc(C)c(-c2ccc(NC(=O)[C@H](Cc3ccc(C(=O)NCCS(=O)(=O)O)cc3)c3ccc(-c4ccc(C(C)(C)C)cc4)cc3)cc2)c(C)c1`, the relative growth was inactive: 0.937.

Regarding `COC(=O)C(=C1OC(=O)C(c2ccccc2)=C1O)c1ccccc1`, the relative growth is inactive: 0.951.

For the compound `Cc1ccc(S(=O)(=O)N(C)C[C@@H]2Oc3c(NC(=O)c4cnccn4)cccc3C(=O)N([C@@H](C)CO)C[C@H]2C)cc1`, the relative growth is inactive: 0.991.

On to `O=C(C[C@@H]1CC[C@@H](NC(=O)CN2CCOCC2)[C@H](CO)O1)NCc1cccc(F)c1`, for which the relative growth was inactive: 0.999.

Turning to `O=C(CN1CCOCC1)N[C@@H]1CC[C@@H](CCNS(=O)(=O)c2ccccc2F)O[C@@H]1CO`, the relative growth was inactive: 0.987.
